# Experimental data published in the supplement of paper PMC8728848.
# The other results are listed elsewhere or left out.
# B1: Sebin1 (Coprinopsis cinerea), A8PEE3 (protein)
# chain: MTSPFYAHIHNVQDDNTWRFTLIFANRATADEWWRAISEAPANTSIAKSITRVTPQYYTHDVNIWNIWNFFADGNIKSISERFRGRLFIVLENDRGGRGITVIPPVPIVDHVSGNWFYIRSKTAPHLFWYYDERRSSIYASKEKRTRFKISIRNPSSQTPKNAIMINTDDVTIHIKENLYVGVDNNLGHIIPTRAYRTFKFGELESGAIAGFDVVENIEERCSSTFDGASLSISGPDSSSPGEPWELV
# Experiments:
# Experiment in all cases: glycan array binding signal (z-score within array); higher = stronger binding
# Details in all cases: glycan notation: IUPAC condensed, linker removed
# [1] = target: Neu5Ac(a2-6)Gal(b1-4)GlcNAc(b1-2)Man(a1-3)[Man(a1-6)]Man(b1-4)GlcNAc(b1-4)GlcNAc
# Procedure, shortened: (§1)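 From the Consortium for Functional Glycomics database, 3228 arrays were curated, keeping only those whose protein sequence was available. Binding is given as a within-array Z-score averaged across arrays sharing a protein sequence and across linkers. Negative Z-scores can be read as non-binding.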
# [2] = target: Neu5Ac(a2-6)Gal(b1-4)GlcNAc(b1-2)Man(a1-3)[Neu5Ac(a2-3)Gal(b1-4)GlcNAc(b1-2)Man(a1-6)]Man(b1-4)GlcNAc(b1-4)GlcNAc
# Procedure, shortened: as §1
# [3] = target: Neu5Ac(a2-6)Gal(b1-4)GlcNAc(b1-2)Man(a1-3)[Neu5Ac(a2-6)Gal(b1-4)GlcNAc(b1-2)Man(a1-6)]Man(b1-4)GlcNAc(b1-4)GlcNAc
# Procedure, shortened: as §1
# [4] = target: Neu5Ac(a2-6)Gal(b1-4)GlcNAc(b1-2)Man(a1-3)[Neu5Ac(a2-6)Gal(b1-4)GlcNAc(b1-2)Man(a1-6)]Man(b1-4)GlcNAc(b1-4)[Fuc(a1-6)]GlcNAc
# Procedure, shortened: as §1
# [5] = target: Neu5Ac(a2-6)Gal(b1-4)GlcNAc(b1-2)Man(a1-6)Man(b1-4)GlcNAc(b1-4)GlcNAc
# Procedure, shortened: as §1
# [6] = target: Neu5Ac(a2-6)Gal(b1-4)GlcNAc(b1-2)Man(a1-6)[Gal(b1-4)GlcNAc(b1-2)Man(a1-3)]Man(b1-4)GlcNAc(b1-4)GlcNAc
# Procedure, shortened: as §1
# [7] = target: Neu5Ac(a2-6)Gal(b1-4)GlcNAc(b1-2)Man(a1-6)[GlcNAc(b1-2)Man(a1-3)]Man(b1-4)GlcNAc(b1-4)GlcNAc
# Procedure, shortened: as §1
# [8] = target: Neu5Ac(a2-6)Gal(b1-4)GlcNAc(b1-2)Man(a1-6)[Man(a1-3)]Man(b1-4)GlcNAc(b1-4)GlcNAc
# Procedure, shortened: as §1
# [9] = target: Neu5Ac(a2-6)Gal(b1-4)GlcNAc(b1-2)[Neu5Ac(a2-6)Gal(b1-4)GlcNAc(b1-4)]Man(a1-3)[GlcNAc(b1-4)][Neu5Ac(a2-6)Gal(b1-4)GlcNAc(b1-2)[Neu5Ac(a2-6)Gal(b1-4)GlcNAc(b1-6)]Man(a1-6)]Man(b1-4)GlcNAc(b1-4)GlcNAc
# Procedure, shortened: as §1
# [10] = target: Neu5Ac(a2-6)Gal(b1-4)GlcNAc(b1-2)[Neu5Ac(a2-6)Gal(b1-4)GlcNAc(b1-4)]Man(a1-3)[GlcNAc(b1-4)][Neu5Ac(a2-6)Gal(b1-4)GlcNAc(b1-4)Man(a1-6)]Man(b1-4)GlcNAc(b1-4)GlcNAc
# Procedure, shortened: as §1
# [11] = target: Neu5Ac(a2-6)Gal(b1-4)GlcNAc(b1-2)[Neu5Ac(a2-6)Gal(b1-4)GlcNAc(b1-6)]Man(a1-6)[Neu5Ac(a2-6)Gal(b1-4)GlcNAc(b1-2)Man(a1-3)][GlcNAc(b1-4)]Man(b1-4)GlcNAc(b1-4)GlcNAc
# Procedure, shortened: as §1
# [12] = target: Neu5Ac(a2-6)Gal(b1-4)GlcNAc(b1-3)Gal(b1-3)GlcNAc
# Procedure, shortened: as §1
# [13] = target: Neu5Ac(a2-6)Gal(b1-4)GlcNAc(b1-3)Gal(b1-4)GlcNAc
# Procedure, shortened: as §1
# [14] = target: Neu5Ac(a2-6)Gal(b1-4)GlcNAc(b1-3)Gal(b1-4)GlcNAc(b1-2)Man(a1-3)[Neu5Ac(a2-6)Gal(b1-4)GlcNAc(b1-3)Gal(b1-4)GlcNAc(b1-2)Man(a1-6)]GalNAc
# Procedure, shortened: as §1
# [15] = target: Neu5Ac(a2-6)Gal(b1-4)GlcNAc(b1-3)Gal(b1-4)GlcNAc(b1-3)Gal(b1-4)GlcNAc
# Procedure, shortened: as §1
# [16] = target: Neu5Ac(a2-6)Gal(b1-4)GlcNAc(b1-3)Gal(b1-4)GlcNAc(b1-3)Gal(b1-4)GlcNAc(b1-2)Man(a1-3)[Neu5Ac(a2-6)Gal(b1-4)GlcNAc(b1-3)Gal(b1-4)GlcNAc(b1-3)Gal(b1-4)GlcNAc(b1-2)Man(a1-6)]GalNAc
# Procedure, shortened: as §1
# [17] = target: Neu5Ac(a2-6)Gal(b1-4)GlcNAc(b1-3)Gal(b1-4)GlcNAc(b1-3)GalNAc
# Procedure, shortened: as §1
# [18] = target: Neu5Ac(a2-6)Gal(b1-4)GlcNAc(b1-3)Gal(b1-4)GlcNAc(b1-3)[Neu5Ac(a2-6)Gal(b1-4)GlcNAc(b1-3)Gal(b1-4)GlcNAc(b1-6)]GalNAc
# Procedure, shortened: as §1
# [19] = target: Neu5Ac(a2-6)Gal(b1-4)GlcNAc(b1-3)Gal(b1-4)GlcNAc(b1-6)[Gal(b1-3)]GalNAc
# Procedure, shortened: as §1
# [20] = target: Neu5Ac(a2-6)Gal(b1-4)GlcNAc(b1-3)Gal(b1-4)[Fuc(a1-3)]GlcNAc(b1-3)Gal(b1-4)[Fuc(a1-3)]GlcNAc
# Procedure, shortened: as §1
# [21] = target: Neu5Ac(a2-6)Gal(b1-4)GlcNAc(b1-3)GalNAc
# Procedure, shortened: as §1
# [22] = target: Neu5Ac(a2-6)Gal(b1-4)GlcNAc(b1-3)[Neu5Ac(a2-6)Gal(b1-4)GlcNAc(b1-6)]GalNAc
# Procedure, shortened: as §1
# [23] = target: Neu5Ac(a2-6)Gal(b1-4)GlcNAc(b1-6)GalNAc
# Procedure, shortened: as §1
# [24] = target: Neu5Ac(a2-6)Gal(b1-4)GlcNAc(b1-6)[Gal(b1-3)GlcNAc(b1-3)]Gal(b1-4)Glc
# Procedure, shortened: as §1
# [25] = target: Neu5Ac(a2-6)Gal(b1-4)GlcNAc(b1-6)[Gal(b1-3)]GalNAc
# Procedure, shortened: as §1
# [26] = target: Neu5Ac(a2-6)Gal(b1-4)GlcNAc6S
# Procedure, shortened: as §1
# Neu5Ac(a2-6)GalNAc = target: Neu5Ac(a2-6)GalNAc
# Procedure, shortened: as §1
# [27] = target: Neu5Ac(a2-6)GalNAc(b1-4)GlcNAc
# Procedure, shortened: as §1
# [28] = target: Neu5Ac(a2-6)GalNAc(b1-4)GlcNAc6S
# Procedure, shortened: as §1
# [29] = target: Neu5Ac(a2-6)GlcNAc(b1-4)GlcNAc
# Procedure, shortened: as §1
# [30] = target: Neu5Ac(a2-6)GlcNAc(b1-4)GlcNAc(b1-4)GlcNAc
# Procedure, shortened: as §1
binder,measurement,setting,value
B1,glycan array binding signal (z-score),[1],0.25
same,glycan array binding signal (z-score),[2],0.31
same,glycan array binding signal (z-score),[3],-0.194
same,glycan array binding signal (z-score),[4],0.673
same,glycan array binding signal (z-score),[5],-0.627
same,glycan array binding signal (z-score),[6],-0.07
same,glycan array binding signal (z-score),[7],0.53
same,glycan array binding signal (z-score),[8],-0.695
same,glycan array binding signal (z-score),[9],1.54
same,glycan array binding signal (z-score),[10],0.444
same,glycan array binding signal (z-score),[11],0.391
same,glycan array binding signal (z-score),[12],-0.663
same,glycan array binding signal (z-score),[13],-0.646
same,glycan array binding signal (z-score),[14],-0.715
same,glycan array binding signal (z-score),[15],-0.443
same,glycan array binding signal (z-score),[16],-0.084
same,glycan array binding signal (z-score),[17],-0.227
same,glycan array binding signal (z-score),[18],0.083
same,glycan array binding signal (z-score),[19],0.023
same,glycan array binding signal (z-score),[20],-0.031
same,glycan array binding signal (z-score),[21],-0.313
same,glycan array binding signal (z-score),[22],-0.475
same,glycan array binding signal (z-score),[23],0.68
same,glycan array binding signal (z-score),[24],0.262
same,glycan array binding signal (z-score),[25],0.235
same,glycan array binding signal (z-score),[26],-0.037
same,glycan array binding signal (z-score),Neu5Ac(a2-6)GalNAc,-0.706
same,glycan array binding signal (z-score),[27],-0.56
same,glycan array binding signal (z-score),[28],0.591
same,glycan array binding signal (z-score),[29],-0.869
same,glycan array binding signal (z-score),[30],-0.656
